Assay results as given in patent publication US9045526B2 (THE REGENTS OF THE UNIVERSITY OF MICHIGAN, priority 2011, dated 2015).
Numbered stars: 1 amine (or outer) side, 2 acyl side, 3 side chain; on linkers, the order of the positions; unused ones are H or OH. Bridge positions count the residues as written; N and C are the ends. Square brackets hold non-standard residues; d marks the D form. Peptide text beside a SMILES is read from it. Dmt = Cc1cc(O)cc(C)c1C[C@H](N)C(=O)O; dPen = CC(C)(S)[C@@H](N)C(=O)O; Aic = NC1(C(=O)O)Cc2ccccc2C1; CH2CH2 = C(C[*:2])[*:1]

How the values were obtained:
[1] = target: T1, kappa-opioid receptor (KOR) (Homo sapiens, UniProt P41145); assay: Ki, nM | (KOR)
T1 construct: expressed in transfected cells
Description: (§1) Table printed on a drawing sheet, FIGURE 4
Head of the field: Ki, nM | (KOR)
(§2) First copying reader's note: Each result cell holds the value together with its ± error.

[2] = target: T2, mu-opioid receptor (MOR) (Rattus norvegicus, UniProt P33535); assay: Ki, nM | (MOR)
T2 construct: expressed in transfected cells; host or cells: C6 rat glioma cells (C6-MOR), stably transfected
Description: as §1
Head of the field: Ki, nM | (MOR)
as §2

[3] = target: T3, delta-opioid receptor (DOR) (Rattus norvegicus, UniProt P33533); assay: Ki, nM | (DOR)
T3 construct: expressed in transfected cells; host or cells: C6 rat glioma cells (C6-DOR), stably transfected
Description: as §1
Head of the field: Ki, nM | (DOR)
as §2

T2 sequence (P33535 whole entry, looked up): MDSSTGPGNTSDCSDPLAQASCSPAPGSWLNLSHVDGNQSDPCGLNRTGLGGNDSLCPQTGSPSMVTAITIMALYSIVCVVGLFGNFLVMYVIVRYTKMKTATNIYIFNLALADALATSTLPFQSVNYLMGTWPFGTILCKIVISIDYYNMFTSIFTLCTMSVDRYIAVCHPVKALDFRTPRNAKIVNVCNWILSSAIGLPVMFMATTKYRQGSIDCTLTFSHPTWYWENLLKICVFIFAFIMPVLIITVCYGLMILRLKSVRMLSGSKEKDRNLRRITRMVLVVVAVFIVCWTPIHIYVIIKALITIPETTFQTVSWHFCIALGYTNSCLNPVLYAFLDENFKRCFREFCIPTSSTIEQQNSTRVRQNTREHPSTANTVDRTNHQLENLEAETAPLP
T1 sequence (P41145 whole entry, looked up): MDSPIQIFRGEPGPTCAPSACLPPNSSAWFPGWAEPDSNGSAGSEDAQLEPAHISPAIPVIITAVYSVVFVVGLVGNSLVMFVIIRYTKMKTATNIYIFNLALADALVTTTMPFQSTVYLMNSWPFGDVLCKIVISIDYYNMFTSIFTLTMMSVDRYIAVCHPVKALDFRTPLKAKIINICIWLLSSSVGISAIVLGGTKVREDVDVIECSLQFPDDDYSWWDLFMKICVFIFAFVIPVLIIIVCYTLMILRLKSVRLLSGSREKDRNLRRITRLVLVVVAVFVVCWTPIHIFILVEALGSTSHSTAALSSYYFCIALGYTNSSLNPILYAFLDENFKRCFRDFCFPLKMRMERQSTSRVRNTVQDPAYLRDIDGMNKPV
T3 sequence (P33533 whole entry, looked up): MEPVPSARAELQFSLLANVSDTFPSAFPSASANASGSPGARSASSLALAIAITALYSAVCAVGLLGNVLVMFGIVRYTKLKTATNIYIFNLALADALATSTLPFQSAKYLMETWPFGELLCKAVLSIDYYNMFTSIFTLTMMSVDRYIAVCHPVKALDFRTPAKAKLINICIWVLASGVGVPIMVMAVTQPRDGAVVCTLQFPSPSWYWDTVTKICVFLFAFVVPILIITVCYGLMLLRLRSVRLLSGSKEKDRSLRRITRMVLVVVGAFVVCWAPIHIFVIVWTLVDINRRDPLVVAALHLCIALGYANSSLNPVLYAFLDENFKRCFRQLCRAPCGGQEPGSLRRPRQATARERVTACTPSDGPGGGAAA

Compound	Ki [1]	Ki [2]	Ki [3]
Cc1cc(O)cc(C)c1C[C@H](N)C(=O)N[C@@H]1CSCCSC(C)(C)[C@H](C(=O)N[C@H](C(N)=O)[C@@H](C)O)NC(=O)C2(Cc3ccccc3C2)NC1=O [VRP-21] (H-[Dmt][dC][Aic][dPen]T-NH2; linker 2-4 via CH2CH2; N-terminus assumed)	607 ± 56 nM	–	–
Cc1cc(O)cc(C)c1C[C@H](N)C(=O)N[C@@H]1CSCCSC(C)(C)[C@H](C(=O)N[C@@H](CCCNC(=N)N)C(N)=O)NC(=O)C2(Cc3ccccc3C2)NC1=O [VRP-24] (H-[Dmt][dC][Aic][dPen]R-NH2; linker 2-4 via CH2CH2)	–	0.43 ± 0.06 nM	3.6 ± 0.3 nM
